Assay results taken from article PMC11995724, “Antibiotic target discovery by integrated phenotypic and activity-based profiling of electrophilic fragments” (Cell chemical biology, 2025).
About 110 (3.4%) of roughly 3,200 compounds showed an effect of 50% or more. Some of the results follow.

Tested on: T1, V. cholerae SAD30
T1 construct: SAD30
Parameters: species or system S. aureus MSSA476 (TSB) or V. cholerae SAD30 (LB); 384-well bacterial growth screen at 25 uM, OD600 relative to DMSO control
Conditions: relative growth, OD600, LB; 25 µM; inhibitor

Compound | % of control remaining [%]
CC(Cl)C(=O)N1CCn2c(C#N)ccc2C1C (stereo not drawn) [6-F22, 2-(2-chloropropanoyl)-1-methyl-1H,2H,3H,4H-pyrrolo[1,2-a]pyrazine-6-carbonitrile] | 96.0091
C=CC(=O)N(CC)CC(=O)N1CCc2c(ncn2CC)C1 [2-H08, N-ethyl-N-(2-{1-ethyl-1H,4H,5H,6H,7H-imidazo[4,5-c]pyridin-5-yl}-2-oxoethyl)prop-2-enamide] | 93.1294
Cc1nn(-c2ccccc2)c(Cl)c1C=C(C#N)C(=O)NC(C)C [9-J17, 3-(5-chloro-3-methyl-1-phenyl-1H-pyrazol-4-yl)-2-cyano-N-(propan-2-yl)prop-2-enamide] | 79.8776
N#CC(=Cc1ccc(OC(F)F)cc1)C(=O)N1CCCc2ccccc21 [8-E03, 3-[4-(difluoromethoxy)phenyl]-2-(1,2,3,4-tetrahydroquinoline-1-carbonyl)prop-2-enenitrile] | 87.6275
CCOc1cc(C=C(C#N)C(=O)Nc2nccs2)cc(Cl)c1O [9-K22, 3-(3-chloro-5-ethoxy-4-hydroxyphenyl)-2-cyano-N-(1,3-thiazol-2-yl)prop-2-enamide] | 97.5527
C=CC(=O)Nc1cccc(S(=O)(=O)C2CCOCC2)c1 [3-M08, N-[3-(oxane-4-sulfonyl)phenyl]prop-2-enamide] | 98.265
COc1ccc(NC(=O)C(C#N)=Cc2cccc(O)c2)cc1Cl [9-C08, N-(3-chloro-4-methoxyphenyl)-2-cyano-3-(3-hydroxyphenyl)prop-2-enamide] | 84.7723
CC(Cl)C(=O)N1CCN(c2nccc3sccc23)CC1 (stereo not drawn) [7-G10, 2-chloro-1-(4-{thieno[3,2-c]pyridin-4-yl}piperazin-1-yl)propan-1-one] | 70.1801
CC(C)C1C(=O)Nc2ccc(Cl)cc2N1C(=O)CCl (stereo not drawn) [5-C11, 6-chloro-4-(2-chloroacetyl)-3-(propan-2-yl)-1,2,3,4-tetrahydroquinoxalin-2-one] | 85.9094
Cc1cc(C(=O)CCl)c(C)n1Cc1ccccc1 [10-M14, 1-(1-benzyl-2,5-dimethyl-1H-pyrrol-3-yl)-2-chloroethan-1-one] | 109.721
O=C(CCl)N(Cc1ccsc1)C1CC1 [5-N18, 2-chloro-N-cyclopropyl-N-[(thiophen-3-yl)methyl]acetamide] | 92.4661
C=CC(=O)N(CC)CC(=O)N1CCCC1c1cn(C)nc1C (stereo not drawn) [2-N12, N-{2-[2-(1,3-dimethyl-1H-pyrazol-4-yl)pyrrolidin-1-yl]-2-oxoethyl}-N-ethylprop-2-enamide] | 86.0272
